Experimental data published in PubChem BioAssay AID485294 (National Center for Advancing Translational Sciences (NCATS), 2010).
About 150 (0.041%) of roughly 370,000 compounds were called active. Inconclusive means that the source gave no clear call. Such entries were picked first, then a sample of the others. Calls come from the whole dose curve; as a rule, active = well fitted inhibition curve with a large enough effect; inconclusive = small, poorly fitted or top-dose-only effect; inactive = flat fitted curve, though single readings scatter. Potencies of inconclusive entries are left out as doubtful fits.

molecular target: Beta-lactamase (Escherichia coli (strain K12)) (UniProt P00811); test: qHTS Inhibitors of AmpC Beta-Lactamase (assay with detergent); conditions: AmpC hydrolysis of nitrocefin, absorbance 480 nm, 0.01% Triton; series mostly up to 114 µM; note: nearly all actives have a fitted effect of over 25% in size
In short: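 AmpC (5.3 nM in the dispensed reagent) in 20 mM phosphate pH 7.0 with 0.01% (detergent screen) or 0.0001% Triton X-100 was preincubated with compounds for 15 min at room temperature. Nitrocefin was then added from an 800 uM solution, and hydrolysis was followed at 480 nm.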
Potency is the fitted concentration of half-maximal effect; tags give direction and shape of the fitted curve.

Chain of UniProt P00811 (P00811 whole entry, looked up): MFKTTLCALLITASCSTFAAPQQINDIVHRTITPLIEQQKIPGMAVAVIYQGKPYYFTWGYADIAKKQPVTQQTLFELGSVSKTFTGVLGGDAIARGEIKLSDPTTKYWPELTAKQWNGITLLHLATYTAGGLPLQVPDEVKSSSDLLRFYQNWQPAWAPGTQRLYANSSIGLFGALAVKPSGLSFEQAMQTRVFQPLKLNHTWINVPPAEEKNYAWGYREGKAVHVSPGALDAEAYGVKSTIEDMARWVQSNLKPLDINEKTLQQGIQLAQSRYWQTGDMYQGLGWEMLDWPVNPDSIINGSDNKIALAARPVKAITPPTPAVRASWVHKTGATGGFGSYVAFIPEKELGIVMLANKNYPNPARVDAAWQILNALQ

`Fc1cc(F)c2nc(Nc3nc4cc5c(cc4s3)OCO5)sc2c1` was tested. Which Potency did it give?
Its Potency is “inactive”.

How did the Potency turn out when `COc1ccc(NC(=O)Nc2c(SC)nsc2SC)cc1` was run?
Its Potency is “inactive”.

How did the Potency turn out when `CSc1ccccc1NC(=O)CN(C)C(=O)c1c(C)nn(Cc2ccccc2)c1C` was run?
Its Potency is inconclusive [inhibitor, full curve].

How did the Potency turn out when `Cc1cc(-c2ccc(S(=O)(=O)Nc3cc(Cl)ccc3C)s2)on1` was run?
The Potency was “inactive”.

With `CCCCOc1ccc(CN(C)c2ncnc(N)n2)cc1` as the compound, how does the Potency read?
The Potency was inconclusive [inhibitor, full curve, poor fit].

`COc1ccccc1NC(=O)CSCc1nc2ccccc2[nH]1` was tested. Which Potency did it give?
The Potency was inconclusive [inhibitor, partial curve, poor fit].

With `CC(=O)c1ccc(Oc2ccc(C(=O)c3ccc(C)c(C)c3)cc2[N+](=O)[O-])cc1` as the compound, how does the Potency read?
The Potency was inconclusive [inhibitor, full curve].

How did the Potency turn out when `Cc1ccc(SCCC(=O)N2CCOCC2)cc1` was run?
The Potency was “inactive”.

`O=C(NCc1ccccc1)c1ccc(NC(=O)c2ccccc2F)cc1` was tested. Which Potency did it give?
Its Potency is “inactive”.

Which Potency does the source give for `COc1ccc(CN2CCN(c3ncccn3)CC2)c(OC)c1` here?
Its Potency is inconclusive [inhibitor, single point].

`CCOc1ccc(N(CC(=O)NCc2ccc3c(c2)OCO3)C(=O)c2csnn2)cc1` was tested. Which Potency did it give?
The Potency was inconclusive [inhibitor, partial curve, poor fit].

Which Potency does the source give for `Cc1c(Cl)cccc1NC(=O)c1ccco1` here?
The Potency was inconclusive [inhibitor, partial curve, poor fit].

With `Nc1oc2ccccc2c1C(=O)Cc1ccccc1O[C@@H]1O[C@H](CO)[C@@H](O)[C@H](O)[C@H]1O` as the compound, how does the Potency read?
Its Potency is inconclusive [inhibitor, full curve, poor fit].

How did the Potency turn out when `O=C(N/N=C/c1sc(N2CCOCC2)nc1-c1ccccc1)c1ccccc1O` was run?
Its Potency is inconclusive [inhibitor, full curve, poor fit].

For `COc1ccccc1NC(=O)/C(C#N)=C/c1cccnc1`, which Potency is on record?
Its Potency is inconclusive [inhibitor, full curve].

How did the Potency turn out when `O=C(Nc1nc(-c2cccs2)cs1)c1ccc(Cl)s1` was run?
Its Potency is “inactive”.

With `Cc1ccc(Nc2c(-c3ccc(N4CCOCC4)cc3)nc3c(C)cccn23)cc1` as the compound, how does the Potency read?
The Potency was “inactive”.

With `O=C(NC(=S)Nc1cccc(Cl)c1N1CCCCC1)c1ccc2c(c1)OCCO2` as the compound, how does the Potency read?
Its Potency is “inactive”.

How did the Potency turn out when `Cc1cc(C)c(NC(=O)CSc2ccc(-c3cccnc3)nn2)c(C)c1` was run?
The Potency was “inactive”.

With `COc1ccc(CCNC(=O)Cn2cccc2C(=O)c2ccccc2)c(OC)c1` as the compound, how does the Potency read?
Its Potency is inconclusive [inhibitor, full curve, poor fit].

`CCCCCOC(=O)C1=C(C)Nc2ncnn2C1c1cccs1` (stereo not drawn) was tested. Which Potency did it give?
The Potency was “inactive”.

`COc1cc2c(=O)n(Cc3ccccc3)c(=O)n(CC(=O)NCC3CCCO3)c2cc1OC` (stereo not drawn) was tested. Which Potency did it give?
Its Potency is inconclusive [inhibitor, single point].

How did the Potency turn out when `CCOC(=O)CC(NC(=O)c1cc2cccc(OC)c2oc1=O)c1cccc([N+](=O)[O-])c1` (stereo not drawn) was run?
Its Potency is inconclusive [inhibitor, full curve, poor fit].

`COc1ccccc1NC(=S)N(CCc1nc2cc(C)c(C)cc2[nH]1)Cc1cccnc1` was tested. Which Potency did it give?
Its Potency is inconclusive [inhibitor, full curve].

How did the Potency turn out when `CCOC(=O)N1CCN(C(=O)c2ccc3nc(-c4ccccc4)c(-c4ccccc4)nc3c2)CC1` was run?
The Potency was “inactive”.

With `CC(C)c1nc(SCC(=O)c2ccccc2)c2c(=O)n(C)c(=O)n(C)c2n1` as the compound, how does the Potency read?
The Potency was inconclusive [inhibitor, full curve].

For `CCN(CC)C(=O)c1ccc(NS(=O)(=O)c2ccccc2)cc1`, which Potency is on record?
The Potency was inconclusive [inhibitor, full curve, poor fit].

How did the Potency turn out when `COc1ccc(NC(=O)c2c(OC)cccc2OC)c(OC)c1` was run?
The Potency was “inactive”.

For `Cc1cccc(Nc2ccc([N+](=O)[O-])cc2C(=O)O)c1`, which Potency is on record?
Its Potency is “inactive”.

How did the Potency turn out when `C=Cc1ccc(Cn2c(C(=O)O)c(CNCCc3ccccc3)c3ccc(C)cc32)cc1` was run?
Its Potency is inconclusive [inhibitor, single point].

For `CCOC(=O)c1nn(-c2ccc(F)cc2)c(-c2ccccc2)c1C(=O)c1ccccc1`, which Potency is on record?
Its Potency is inconclusive [inhibitor, partial curve, poor fit].

How did the Potency turn out when `Cc1ccc2oc(-c3ccc(NC(=O)c4ccncc4)cc3O)nc2c1` was run?
The Potency was “inactive”.

Which Potency does the source give for `CC(C)c1nnc(NC(=O)CCC(=O)NCc2ccc3c(c2)OCO3)s1` here?
The Potency was inconclusive [inhibitor, partial curve].

Which Potency does the source give for `CCCC(C(=O)NCc1ccco1)N(Cc1ccco1)C(=O)CNS(=O)(=O)c1ccccc1` (stereo not drawn) here?
The Potency was “inactive”.

`CN1CCN(C2(CNC(=O)c3ccc([N+](=O)[O-])cc3)CCCCC2)CC1` was tested. Which Potency did it give?
Its Potency is “inactive”.

For `COc1ccc([C@]23Cc4ccccc4C(O2)c2c(cc(-c4ccccc4)oc2=O)O3)cc1`, which Potency is on record?
Its Potency is inconclusive [inhibitor, full curve, poor fit].

How did the Potency turn out when `CC(C)C(=O)NCCc1nc2ccccc2n1C` was run?
The Potency was inconclusive [inhibitor, full curve, poor fit].

With `O=C(NCc1ccco1)C(c1ccccc1)N(C(=O)Cc1cccs1)c1ccccc1F` (stereo not drawn) as the compound, how does the Potency read?
Its Potency is inconclusive [inhibitor, partial curve, poor fit].

With `Cn1c(/C=N/c2nc3ccccc3[nH]2)nc2ccccc21` as the compound, how does the Potency read?
Its Potency is inconclusive [inhibitor, full curve, poor fit].

How did the Potency turn out when `COc1ccccc1-c1cc(C(=O)Nc2c(C)n(C)n(-c3ccccc3)c2=O)no1` was run?
The Potency was inconclusive [inhibitor, single point].

`O=C(CSc1nnc(-c2ccco2)o1)N1CCCCC1` was tested. Which Potency did it give?
The Potency was “inactive”.

For `CC(=O)Nc1ccc(-c2cc(-c3ccc(NC(C)=O)cc3)nc(-c3ccccc3)n2)cc1`, which Potency is on record?
Its Potency is inconclusive [inhibitor, partial curve, poor fit].

With `Cc1ccc(C(=O)NNC(=O)C2CCN(S(=O)(=O)c3ccc(C)cc3)CC2)cc1` as the compound, how does the Potency read?
The Potency was “inactive”.

Which Potency does the source give for `COc1ccc(CNC(=O)CCC2N=C3c4ccccc4N=C(SCc4ccc(F)cc4)N3C2=O)cc1` (stereo not drawn) here?
The Potency was “inactive”.

For `Brc1ccc(CSc2ccc3nnc(-c4cccnc4)n3n2)cc1`, which Potency is on record?
The Potency was inconclusive [inhibitor, full curve].

Which Potency does the source give for `CC(CCc1ccccc1)NC(=O)C(=O)Nc1ccccc1` (stereo not drawn) here?
Its Potency is “inactive”.

How did the Potency turn out when `O=C(C[C@H]1C(=O)N(C2CCCCC2)C[C@@H]1Cc1ccccc1)Nc1ccccc1` was run?
Its Potency is inconclusive [inhibitor, full curve, poor fit].

`O=C(Cn1cnc2sc3c(c2c1=O)CCCC3)NCCC(=O)N1CCC2(CC1)OCCO2` was tested. Which Potency did it give?
Its Potency is inconclusive [inhibitor, partial curve].

`Cc1ccc2nc(-c3ccccc3)cc(C(=O)N(C)CC(=O)Nc3ccccc3Br)c2c1` was tested. Which Potency did it give?
The Potency was “inactive”.

Which Potency does the source give for `COCCCn1c(=O)c2sccc2n2c(CCCC(=O)Nc3ccc(F)c(F)c3)nnc12` here?
Its Potency is “inactive”.

With `CC(=O)OCn1nnc2ccccc2c1=O` as the compound, how does the Potency read?
The Potency was inconclusive [inhibitor, partial curve, poor fit].

How did the Potency turn out when `CCn1cc(-c2n[nH]c(=S)n2-c2ccc(C)cc2Br)c(=O)c2ccc(C)nc21` was run?
Its Potency is “inactive”.

How did the Potency turn out when `CC(=O)c1cccc(NC(=S)Nc2ccc(F)cc2)c1` was run?
Its Potency is inconclusive [inhibitor, single point].

For `CC(=O)NC(Cc1c[nH]c2ccccc12)C(=O)N/N=C/c1ccccc1` (stereo not drawn), which Potency is on record?
The Potency was inconclusive [inhibitor, full curve].

For `COc1ccc(NC(=O)CSc2nc(=O)n(CCN3CCOCC3)c3c2CCCC3)c(OC)c1`, which Potency is on record?
Its Potency is inconclusive [inhibitor, full curve, poor fit].

How did the Potency turn out when `COCC(C)NCc1cccc(OC)c1OC` (stereo not drawn) was run?
The Potency was inconclusive [inhibitor, single point].

Which Potency does the source give for `O=C1CN(C(=O)COC(=O)CCC(=O)c2ccc3c(c2)OCCO3)c2ccccc2N1` here?
The Potency was inconclusive [inhibitor, full curve, poor fit].

`CCOCCCn1c(=S)[nH]c2cc(C(=O)NCCc3ccccc3)ccc2c1=O` was tested. Which Potency did it give?
The Potency was inconclusive [inhibitor, full curve, poor fit].

How did the Potency turn out when `COc1cc(NC(=O)C2=CC(c3ccc(C)cc3)=NS(=O)(=O)N2C)cc(OC)c1OC` was run?
The Potency was inconclusive [inhibitor, full curve].

For `O=c1cc(-c2ccco2)oc2ccc(Cl)cc12`, which Potency is on record?
The Potency was “inactive”.

For `O=C(CN1CCCCC1)NCC(=O)Nc1ccc(Br)cc1C(=O)c1ccccc1`, which Potency is on record?
Its Potency is inconclusive [inhibitor, full curve, poor fit].

With `CC(OC(=O)COc1cccc2c1OC(C)(C)C2)C(=O)Nc1ccc(S(N)(=O)=O)cc1` (stereo not drawn) as the compound, how does the Potency read?
The Potency was inconclusive [inhibitor, partial curve, poor fit].

`C/C(Cn1cnc([N+](=O)[O-])n1)=N\NC(=O)c1ccc(F)cc1` was tested. Which Potency did it give?
The Potency was inconclusive [inhibitor, full curve, poor fit].

How did the Potency turn out when `Cc1ccc(NS(=O)(=O)c2ccc(Cl)s2)cc1S(=O)(=O)N(C)C` was run?
Its Potency is inconclusive [inhibitor, single point].

`CCOc1cc(C2C(C(=O)OCC(C)C)=C(C)N=C3SCCC(=O)N32)ccc1OC(C)=O` (stereo not drawn) was tested. Which Potency did it give?
The Potency was inconclusive [inhibitor, partial curve, poor fit].

With `CCN1C(=O)[C@H]2[C@@H](c3ccc(-c4ccc(Cl)c(Cl)c4)cc3)N[C@@](C)(C(=O)OC)[C@H]2C1=O` as the compound, how does the Potency read?
Its Potency is inconclusive [inhibitor, single point].

How did the Potency turn out when `CC(=O)/C(=N/Nc1cccc(C)c1)N1CCOCC1` was run?
Its Potency is “inactive”.

With `CCC(C(=O)OCC(=O)N(CC)c1c(N)n(Cc2ccccc2)c(=O)[nH]c1=O)c1ccccc1` (stereo not drawn) as the compound, how does the Potency read?
Its Potency is inconclusive [inhibitor, partial curve, poor fit].
